Measurements as given in the RNAGym collection of RNA variant scans (doi:10.7554/elife.90254).
The source gives no read counts; variants with many changes may rest on few reads.

B1: OR4K15 (parent)
chain: GUUAACGGUCAUAGGCCAUGGAAACUAGGAGCACCAUUUCGCUGCCAGUGAAGAAAUGAACAAAGAAAAUCUGGGCCAGGCAGGCAUCAAAAGAAAUAGUCUUGCGCUCAACCAGAAAGUCUGUAAUCAUUUUAAGGGUA

Variants of: B1
Test: self-cleavage, relative activity (ratio to wild type); higher = more cleavage; in vitro, sequencing; the parent is a self-cleaving ribozyme

Variant	self-cleavage
C81U A95G A114U	0.02
A67G G80A A96G A114G	0.02
A68G A96G U132C	0.81
U72A A78G C109A	0.08
A82G U108C U130C	0.02
A67C A86G U130C A135C	2.32
A78U A86G U87A U108G	0
A78U A94G A116G	0.16
A69G U87C A111G U131C	0
U70C A89G A114G U120C U122A	0
A67G U70C A125G	0.22
A67G A86G A98G U103A U132C	0.05
A78G A96G A110G A117G	0.02
C76A U100C A114U A116U	0
A78U A86G U100C A134G	0.93
C77U U108C U130C	0.01
A68U A117G U132C	2.15
A68U A78G A129G	0.19
U72A A89U U102C	0.56
G74C U122C U131C	0.14
U70C U72C U108C	0.01
A68G A69G A95U A126G U139C	0.96
U70C U87A U127C	0.27
G74A U100C U108C A111G A135C	0

Variant	self-cleavage
U70C A114U U130C	0
A69G A82U A96C	0.03
A78G A116G U130C	0.05
A78U A96G A118G	0.12
A67G A82U C105U	0
U72A A82U A118G	0.07
G74A A89G A92G	0.17
A69U U72C A116G A118G	0.1
G73U A91G A125G	0.01
U70G A86U U124C	0.69
A68G U87C U122C A140U	0.64
U72C A114U U131C	0
G74C A126G A134G	0.22
A67G A98G U108C	0.01
A67G A78G G104A A114U U130A	0.01
U72A U108C U122A A140G	0.01
G79A A117G U122C	0.19
A69G A82G U100C	0.73
U70C A92G A114G A140G	0.04
A67G A82G A86G U100C U102C U103C	2.26
G80A A86U U139C	0.31
A69G A78G A125G	0.11
A78G A92G A98G A111G	0.03
A78G A117G A125G	0.1

Variant	self-cleavage
A68U U124C U139C	0.54
U72A A111G A114G	0.01
C71A A86G U139C	0.35
A67G A116G A117G	1.08
A69G C112U A135U	0.02
U70C U100C A118U	1
A69G C121U A129G	1.56
A78U A98G G115U	0.02
A67G A94U A118G U131C	0.3
A67G A86G A140G	2.22
A67G A90U U103C	0.52
A78G A82U U132C	0.11
A69C A90G A129U A135U	0.21
U72C G74U U120A	0.11
A78G G83A U127C	0.16
U72A A90G A111G A118U U130C	0
A68G A78U G137U	0.43
A67G U72G A91G U130C	0.07
A67G A68G A86G U87A U122C	0.9
A82G U87C A140G	0.7
A78G U108C U131C A135G	0
A67G A86U A135G	0.65
A78C A90G U108C	0.01
A67G A118G U131C	0.78

Variant	self-cleavage
A69C U100C U131C	2.26
A67G A96G A140G	1.71
U70C C107A A114U A116G U122C	0
U70C A89C U103C	0.21
A67U A95G A114G A116G	1.03
U70C A86G U87C U103C	0.04
A68G U102C A135G	0.67
A68G A91G U100C	2.37
A68G C81U A94G U108A A110G	0.01
A69C A116G A117G	1.14
C81U U87A A117U	0.12
A78U A110U A116G	0.03
A78G A86C A92G C101A U131A	0.02
A78G C85G A129G	0.06
U72A A96G U100C U108C A140G	0
A78C A86G U97C A114U A129G A135G	0
G75A A89U A94G A135G	0.06
U70C U103C G106A U130C	0
A69U A95U U130C	2.11
A69C A96U A110U	2.15
A69G U87C C109U	0.14
A68G A82U U102C A111U	0.02
A67G U72C A95G	0.22
A69G G74C U100C	0.23

Variant	self-cleavage
U70C A118G U139C	0.29
A67G G84C A110U	0.22
U70C G80A A126G	0.11
A68C A116G U131C	0.43
A68G A69U U102C	1.69
U70C A117G A125G	0.43
A78U A95G U132A	0.12
A68G U72A U100A	0.05
G75C A78G U127G	0.13
A67G A116G A135G	0.96
U70C A110G A118G	0.06
A82U A86C U108C	0.01
U70C A82U A118G U130C	0.03
A67G U122C G138A	0.62
A68G U103C A111G	0
A66U A116U A126U	0.22
A82G A86G A92G C121G	0.25
U72C U122C A135G	0.12
A68G A96G U103C A117G U133C	1.47
U72A A78U A89G	0.12
U70C A91G G106A	0.01
C71G A96G A118G	0.17
A69G A92G A126G	0.89
A67G A91G U97A	0.73

Variant	self-cleavage
A78G A91G A110U	0.26
A67G A91G A92G	1.56
A68G A92U U103C U124C	0.48
A82G A90G A117G U132C	0.54
A68G A90U A94G U132C	0.55
A69U A94G A111G U139C	0.02
A78G A92G A96C	0.15
G75U U131C A135G	0.14
A68G A95G G115U	0.31
U72C G83A U102C	0.46
A69G U100A U102C	2.02
A68C A110U A111G A116G	0.02
A69C U70C U72C C76U U103G	0.02
A68G G93A A94G	2.57
G80A A95G A96G	0.2
U70C A92G U102C A111C	0
U72A U87C A118G A140C	0.14
A82G A86G U122C	0.2
A69G A118G A140G	1.87
U72C A111G U132C	0.05
U72A A96G U120C	0.06
A67U G80A A82C U87C	0.08
A67G A116G U133A	0.49
A67G C85A A86U A129U	0.46

Variant	self-cleavage
A78G A90G U132C	0.18
U70A A89G A94G	0.65
U72A A82G A96G A140G	0.26
A68G A86C A135G	0.76
A68G G79A A114G	0.03
A69G U87C U102A	0.69
U72A A98U A111G A129G	0.01
A67G U108C A111G U133C	0
C76U U87A A91G U120G	0.04
A67G A82G U127C	0.25
A69G G84A U108C U127C U130A	0.01
A67G A94G A126G U139C	1.12
A68G U87C A91G	0.84
A69G U72C A89U	0.25
C77U U87A A98G	0.66
A68C A94G A135G	2.61
A67G U87C A135G	0.57
G79A A117G U139C	0.16
A67G A111G U120G	0.01
A68G G75U A94U U120C A135G	0.05
A68G A78G U103C A114G	0.07
U72C A94G G106A	0.01
A68G A86G A110G	0.18
